# Reference: PubChem BioAssay AID624202 (National Center for Advancing Translational Sciences (NCATS), 2012)
# The whole screen tested about 380,000 compounds, of which about 4,000 (1.1%) were called active. Inconclusive means that the source gave no clear call. Such entries were picked first, then a sample of the others. Calls come from the whole dose curve; as a rule, active = well fitted activation curve with a large enough effect; inconclusive = small, poorly fitted or top-dose-only effect; inactive = no such curve, though single readings can be large or run the other way. Potencies beside an inconclusive call are fits to weak or partial responses and may not hold up.
# Assay: qHTS Assay to Identify Small Molecule Activators of BRCA1 Expression; note: nearly all actives have a fitted effect of over 80% in size
# Settings: MCF7-BRCA1-FFLuc reporter, luminescence, 48 h; activation: at 46.1 µM (top of the series), scaled: vehicle 0%, 10 µM genistein 100% unless noted
# In short: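 First, MCF7-BRCA1-FFLuc cells (2000/well) attach for 2 h; next, compounds are pin-added and incubated 48 h at 37 °C; finally, luciferase reagent is added and luminescence read after 15 min.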
# Potency is the fitted concentration of half-maximal effect; tags give direction and shape of the fitted curve.
Structure (SMILES),Potency,activation
Cc1ccc(C(=O)Nc2ccc(Br)c(C(F)(F)F)c2)cc1,"inconclusive: 2.51 µM [activator, partial curve, poor fit]",–
C#CCSc1nnc(-c2ccc(OC)cc2)o1,"inconclusive: 2.51 µM [activator, partial curve, poor fit]",–
CC(C)NS(=O)(=O)c1ccc(NC(=S)NC(=O)c2cccc([N+](=O)[O-])c2)cc1,inactive,–
O=C(O)c1ccc(N/N=C/c2ccc(C(F)(F)F)cc2)cc1,–,inconclusive: -75.3% [activator]
O=C(Cc1ccc(Cl)cc1)Nc1cc(Cl)ccn1,active: 7.08 µM,–
COc1ccc(N2C(=O)CS(=O)C(c3ccccc3)C2=O)cc1 (stereo not given),inactive,–
Nc1nc(Nc2ccc(Cl)cc2)nc2ccccc12,–,inconclusive: -86.6% [activator]
CCOC(=O)N1N=C(c2ccc(C)cc2)CC1(O)C(F)(F)F (stereo not given),"inconclusive: 1.26 µM [activator, full curve, poor fit]",–
CCOC(=O)c1sc(=NC(=O)c2cccc(OC)c2)n(C)c1C,"inconclusive: 35.5 µM [activator, single point]",–
Nc1nc(SCc2ccccc2)[nH]c(=O)c1-c1ccccc1,active: 10 µM,–
COC(c1ccccc1)c1nnc(CCC(=O)N(C)C(C2CC2)C2CC2)o1 (stereo not given),"inconclusive: 14.1 µM [activator, single point]",–
O=C(O)c1ccccc1CSc1nc2ccccc2s1,active: 5.62 µM,–
COc1ccc(OCc2cc(C(=O)N3CCOCC3)no2)c(Cl)c1,"inconclusive: 2 µM [activator, full curve, poor fit]",–
CN(C)c1ccc(NC(=O)c2ccc([N+](=O)[O-])cc2Cl)cc1,"inconclusive: 1.58 µM [activator, partial curve, poor fit]",–
CCCOc1ccc(CC(=O)N/N=C\c2ccc(F)cc2)cc1,inactive,–
COc1ccc(Nc2nc(N)c3ccccc3n2)c(OC)c1,active: 3.55 µM,–
C=C1CC2(OC1=O)c1ccccc1CCc1ccccc12,inactive,–
CN(C)c1ccc(C2=NOC(CN3C(=O)c4ccccc4S3(=O)=O)C2)cc1 (stereo not given),"inconclusive: 1.26 µM [activator, partial curve, poor fit]",–
COc1ccc(-c2csc(N3C(=N)SCC3=O)n2)cc1,"inconclusive: 0.501 µM [activator, full curve, poor fit]",–
COc1ccccc1Oc1ccc(N/C=C/C(=O)c2ccco2)cc1,"inconclusive: 2 µM [activator, partial curve, poor fit]",–
O=C(Nc1ccc(Br)cc1F)c1cnn2c1NC(=C1CC1)C=C2C(F)F,inactive,–
NNC(=O)c1cccc(COc2ccccc2Br)c1,–,inconclusive: -68% [activator]
Cc1ccc(NC(=O)N2CCc3ccccc3C2)cc1,"inconclusive: 15.8 µM [activator, single point]",–
O=c1c2c3c(sc2nc(NCCO)n1Cc1ccco1)CCCCC3,"inconclusive: 12.6 µM [activator, partial curve, poor fit]",–
Cc1ccc(N=N/C(=C\O)C(=O)c2ccncc2)cc1,inactive,–

Structure (SMILES),Potency,activation
CCCCCn1c(CN(C)Cc2ccccc2)nc2c1c(=O)n(C)c(=O)n2C,inactive,–
C[C@H](CO)N1C[C@H](C)[C@@H](CN(C)Cc2ccc3c(c2)OCO3)Oc2c(NC(=O)Cc3ccccc3)cccc2C1=O,inactive,–
CCn1nnc2sc3c(c2c1=O)CCC(C)C3 (stereo not given),active: 12.6 µM,–
O=C(Nc1cccc(F)c1)NC1CCCCC1,"inconclusive: 14.1 µM [activator, partial curve, poor fit]",–
CNc1nnc(-c2ccc(OC)cc2)s1,"inconclusive: 14.1 µM [activator, partial curve, poor fit]",–
CCc1ccc(C(=O)Nc2ccc3nc(C)ccc3c2)cc1,active: 3.16 µM,–
Cc1nnc(NC(=O)c2ccc3ccccc3c2)s1,"inconclusive: 2.51 µM [activator, full curve, poor fit]",–
Cc1ccccc1C(=O)Nc1cccc(NC(=O)c2ccc(F)cc2)c1,inactive,–
O=C(Nc1nsc(-c2ccccc2)n1)c1cccs1,"inconclusive: 1.41 µM [activator, partial curve, poor fit]",–
CC(=O)N1CCN(c2ccc(NC(=O)c3ccccc3)cc2)CC1,"inconclusive: 10 µM [activator, partial curve, poor fit]",–
Cn1ncc(Br)c1C(=O)OCC(=O)Nc1nc(-c2ccccc2)cs1,"inconclusive: 25.1 µM [activator, single point]",–
COc1ccc2c(c1)CCc1c-2n[nH]c1C(=O)NCCC(C)C,–,inconclusive: 75.8% [activator]
O=C(Nc1ccc2c(c1)OCO2)Nc1ccc(F)cc1F,active: 3.16 µM,–
c1ccc(-c2noc(-c3ccc4c(c3)OCO4)n2)nc1,–,inconclusive: -101% [activator]
Cn1ccc2cc3c(cc21)CCN3C(=O)Nc1cccnc1,"inconclusive: 35.5 µM [activator, single point]",–
CCS(=O)(=O)c1ncc(Cl)c(C(=O)Nc2ccc(C)cc2)n1,inactive,–
Cc1cnc(C(=O)NCCc2ccc(Cl)cc2)cn1,"inconclusive: 7.08 µM [activator, partial curve, poor fit]",–
CCCn1cc(SCC(=O)NCC2CCCO2)c2ccccc21 (stereo not given),"inconclusive: 7.94 µM [activator, partial curve, poor fit]",–
CC(C)(C)C(=O)Nc1ccc2oc(-c3cc(F)c(F)cc3Cl)nc2c1,"inconclusive: 1 µM [activator, full curve, poor fit]",–
O=C(CC(SCCO)c1ccc2c(c1)OCO2)c1ccco1 (stereo not given),"inconclusive: 11.2 µM [activator, partial curve, poor fit]",–
Clc1cccc(-c2nc(-c3ccc(-c4nn[nH]n4)cc3)no2)c1,"inconclusive: 11.2 µM [activator, partial curve, poor fit]",–
Cc1ccc(Nc2nc(C)cs2)cc1,active: 2.51 µM,–
O=C(NCCc1cccs1)c1cccs1,active: 6.31 µM,–
CCN(CC)C(=O)c1sc2nc(-c3ccc(OC)cc3)cn2c1C,active: 2.82 µM,–
COc1cc(NC(=O)c2cc3nc(C)cc(C)n3n2)c(OC)cc1Cl,"inconclusive: 1.58 µM [activator, full curve, poor fit]",–

Structure (SMILES),Potency,activation
Cc1cc(C(=O)N2CCc3ccccc3C2)c(C)o1,"inconclusive: 25.1 µM [activator, single point]",–
COc1ccccc1CCNC(=O)C1CCN(C(=O)/C=C/c2ccccc2)CC1,"inconclusive: 11.2 µM [activator, partial curve, poor fit]",–
COc1cccc(NC(=O)CSc2nc3cc(OC)c(OC)cc3c3nc(-c4ccccc4)nn23)c1,inactive,–
O=S(=O)(Nc1ccc2nc(-c3ccco3)[nH]c2c1)c1ccccc1,"inconclusive: 7.08 µM [activator, partial curve, poor fit]",–
Cc1cc(NC(=O)c2noc3c2CCc2ccccc2-3)no1,inactive,–
O=C(CN(Cc1ccccc1)S(=O)(=O)c1ccccc1)N/N=C/c1ccc2c(c1)OCO2,inactive,–
Cc1ccc(-c2ccc(C(=O)O)[nH]2)cc1,"inconclusive: 15.8 µM [activator, single point]",–
CNc1oc(/C=C/c2cccc(OC)c2)nc1C#N,"inconclusive: 4.47 µM [activator, full curve, poor fit]",–
COc1ccc(CCNC(=O)COc2ccc(N(C)S(=O)(=O)c3ccc(C)cc3)cc2)cc1OC,inactive,–
Cc1ccnc(NC(=O)/C=C/c2ccccc2Cl)c1,"inconclusive: 0.631 µM [activator, full curve, poor fit]",–
Nn1c(SCc2ccccc2F)nnc1-c1ccncc1,"inconclusive: 14.1 µM [activator, partial curve, poor fit]",–
O=Cc1cn(CC(=O)N2CCCc3ccccc32)c2ccccc12,inactive,–
N/C(=N\OC(=O)COc1ccc(Cl)cc1Cl)c1cccnc1,active: 7.94 µM,–
COc1cc(-c2cc(=O)c3c(O)cc(O)cc3o2)ccc1O,"inconclusive: 17.8 µM [activator, single point]",–
COc1ccc(C(=O)N=c2nc3ccccn3s2)cc1,–,inconclusive: -56.5% [activator]
O=C1C(=O)N(c2nccs2)C(c2ccccc2F)/C1=C(\O)c1ccc2c(c1)OCCO2 (stereo not given),inactive,–
CC1=C(C(=O)Nc2cccnc2)C(c2cccc(F)c2)n2nc(SCc3ccccc3)nc2N1 (stereo not given),inactive,–
O=C(O)c1cc(N/N=C/c2ccc(-c3ccccc3)cc2)ccc1Cl,–,inconclusive: 88.8% [activator]
S=C(c1ccc(-c2ccc(Cl)cc2Cl)o1)N1CCCCC1,active: 7.94 µM,–
Cc1oc(-c2cccs2)nc1CN1CC[C@@](O)(c2ccccc2)[C@H]2CCCC[C@@H]21,inactive,–
CC(C)C(=O)Nc1ccc2nn(-c3ccc(F)cc3)nc2c1,–,inconclusive: 120% [activator]
COc1ccc(C(=O)COC(=O)c2ccn(C)n2)cc1,"inconclusive: 12.6 µM [activator, partial curve, poor fit]",–
O=C(CSc1ccccc1)Nc1ccccc1C(=O)O,"inconclusive: 12.6 µM [activator, partial curve, poor fit]",–
Oc1ccc(Cl)cc1CNc1ccc(Br)cn1,"inconclusive: 22.4 µM [activator, single point]",–
COc1ccc(/C=C/C(=O)OCC(=O)c2ccccc2F)cc1,"inconclusive: 20 µM [activator, partial curve, poor fit]",–
